Measurements taken from the supplement of paper PMC4166925.
± gives the standard deviation of the averaged measurements. Over roughly 33,000 sequences, “E-score (dimensionless, -0.5 to 0.5)” has its median near -0.049; the highest 2% begin near 0.37. The list shows a part of the results.

Tested on: T1, PmTbr T-box DNA-binding domain (GST fusion)
T1 sequence: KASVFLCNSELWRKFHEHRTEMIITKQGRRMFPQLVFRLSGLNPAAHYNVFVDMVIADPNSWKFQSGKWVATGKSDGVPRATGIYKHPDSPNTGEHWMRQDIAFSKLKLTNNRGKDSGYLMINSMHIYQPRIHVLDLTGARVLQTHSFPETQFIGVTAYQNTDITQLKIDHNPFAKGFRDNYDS
Test: PBM E-score of 8-mer (E-score (dimensionless, -0.5 to 0.5)); Tbr is Tbrain of the sea star Patiria miniata (Pm) or the sea urchin Strongylocentrotus purpuratus (Sp); higher = stronger binding preference; most listed sequences are background and not binding sites
Conditions: the construct has about 5 more residues each side
How it was run: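 Each ungapped 8-mer received an enrichment E-score from the Universal PBM Analysis Suite, averaged over duplicate arrays. The proteins were Tbr T-box DNA-binding domains, covering the whole T-box plus about five flanking residues, fused to GST and expressed in BL21 E. coli at 20 °C before glutathione affinity purification. Universal Agilent oligonucleotide arrays were made double-stranded by primer extension and incubated with 200 nM protein in PBS (pH 7.5). The arrays were then scanned and quantified, and every 8-mer was scored from probe intensities.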

Row | Sequence | PBM E-score of 8-mer
1 | ATCCAATA | -0.193 ± 0.025
2 | AGCTACCG | -0.0389 ± 0.0068
3 | AGTGTACG | 0.061 ± 0.021
4 | CCGTTCTC | 0.0823 ± 0.076
5 | AAATAGGA | -0.294 ± 0.053
6 | AACTGCTG | 0.0905 ± 0.049
7 | AGAGGGTA | -0.108 ± 0.023
8 | CGCAGCCG | 0.00728 ± 0.07
9 | CACTGACG | 0.217 ± 0.0037
10 | GATAATTA | 0.188 ± 0.055
11 | CGCTCAAA | -0.11 ± 0.051
12 | CCCCGGAG | -0.271 ± 0.012
13 | GTCACAAA | 0.118 ± 0.066
14 | AATTCTCT | -0.257 ± 0.028
15 | CAGTTTGA | 0.00953 ± 0.039
16 | GCCGCTCC | -0.126 ± 0.16
17 | ACACCTGT | 0.472 ± 0.00061
18 | CGCTGCAA | -0.0364 ± 0.051
19 | AAGGCGCT | 0.276 ± 0.02
20 | TATAAACA | 0.0334 ± 0.0092
21 | CGCTGACG | 0.0787 ± 0.071
22 | TATGTGCA | -0.00413 ± 0.051
23 | ACGAAACA | 0.00608 ± 0.065
24 | GTCTCCGA | -0.174 ± 0.018
25 | ACTGGCCA | 0.0259 ± 0.067

Row | Sequence | PBM E-score of 8-mer
26 | AAATTAAA | -0.276 ± 0.056
27 | AATCTGCC | -0.117 ± 0.045
28 | GTCTGCCA | -0.0444 ± 0.023
29 | GTACCCTA | -0.0403 ± 0.012
30 | AACGTCTT | -0.0896 ± 0.0054
31 | GCATCAGA | -0.356 ± 0.029
32 | CGTTTAAC | 0.0371 ± 0.016
33 | ACTAAACT | -0.221 ± 0.1
34 | AATTGGCT | -0.124 ± 0.023
35 | ATGACAAA | -0.0227 ± 0.073
36 | CGAGCTAG | 0.0843 ± 0.042
37 | AAGCCACC | -0.103 ± 0.0082
38 | CCTGAGAG | 0.208 ± 0.03
39 | ACCCGTTC | 0.0894 ± 0.035
40 | AACCGCAT | -0.147 ± 0.042
41 | ATCGCGAC | 0.26 ± 0.021
42 | AGTTCGCA | 0.378 ± 0.0033
43 | CCCAACGG | -0.0163 ± 0.021
44 | ATCTAACC | -0.17 ± 0.028
45 | AGAGGACA | -0.0292 ± 0.078
46 | CGAAGGCG | 0.324 ± 0.0055
47 | GTGTCATA | 0.4057 ± 0.0013
48 | GACAGGCC | -0.0954 ± 0.051
49 | CGAAAGGC | -0.0574 ± 0.022
50 | GCGGCAGA | -0.0652 ± 0.011

Row | Sequence | PBM E-score of 8-mer
51 | AAAATTGA | -0.043 ± 0.071
52 | AGTTTGCC | -0.0426 ± 0.13
53 | CTACTGTA | -0.155 ± 0.044
54 | TGGTCTAA | 0.00383 ± 0.037
55 | CCCTACCA | -0.0735 ± 0.011
56 | CGCCGGTC | -0.0418 ± 0.029
57 | CCGAGCCC | -0.159 ± 0.01
58 | ATAGTTAA | 0.114 ± 0.035
59 | GACAGCTC | 0.263 ± 0.026
60 | GTTGAGCA | -0.115 ± 0.024
61 | GAAAGGAC | -0.121 ± 0.062
62 | GATTGTGA | 0.0805 ± 0.0052
63 | CGAAGCGC | 0.0656 ± 0.031
64 | TACTCTCA | 0.0232 ± 0.011
65 | GGGACATA | -0.105 ± 0.011
66 | ATCTCATG | -0.0216 ± 0.0023
67 | CCTTGTCG | 0.131 ± 0.0024
68 | AGGGCTCC | -0.366 ± 0.024
69 | AACTCAAG | -0.109 ± 0.043
70 | CGAAAGCG | 0.0964 ± 0.029
71 | AGTTGGTA | -0.0311 ± 0.073
72 | ACTTGGCG | 0.228 ± 0.025
73 | GCGACCCC | 0.0884 ± 0.043
74 | AAGAATAG | 0.164 ± 0.073
75 | AATGGAAC | -0.0221 ± 0.039

Row | Sequence | PBM E-score of 8-mer
76 | ACCAGAGC | -0.278 ± 0.066
77 | AAGGAGCT | -0.178 ± 0.079
78 | CTACATGC | -0.113 ± 0.025
79 | GTCGTATA | -0.103 ± 0.029
80 | ATCTGGCA | 0.0799 ± 0.025
81 | CCAGACGA | 0.00635 ± 0.05
82 | ACGGCAAG | -0.0132 ± 0.021
83 | ACTTGGAA | -0.1519 ± 0.00037
84 | AATGCCAC | 0.102 ± 0.039
85 | AACAGACG | -0.113 ± 0.01
86 | AAACTTCG | 0.00852 ± 0.068
87 | GCAAAGAC | 0.0671 ± 0.01
88 | ACATCGGC | 0.0575 ± 0.012
89 | GCATTCAC | 0.106 ± 0.022
90 | ACAATAGT | 0.00901 ± 0.0018
91 | AAGAATAA | -0.181 ± 0.091
92 | CATCGGAG | -0.268 ± 0.058
93 | CTGATCAA | -0.0385 ± 0.048
94 | CTGCAAGC | -0.244 ± 0.094
95 | CCAGCAGA | -0.00462 ± 0.083
96 | GAATAGAC | -0.0937 ± 0.043
97 | CCAAAAGG | 0.0645 ± 0.019
98 | GTTGATCA | 0.0616 ± 0.0014
99 | CCTCAATC | -0.093 ± 0.064
100 | ACATAATA | -0.0608 ± 0.017

Row | Sequence | PBM E-score of 8-mer
101 | GTGGGTGA | 0.197 ± 0.026
102 | ACTGATGA | -0.198 ± 0.046
103 | GAAACCGA | -0.0132 ± 0.073
104 | AATCTAGG | -0.269 ± 0.042
105 | AGCGTGTA | 0.0613 ± 0.047
106 | ACAGTGTG | 0.324 ± 0.025
107 | CAAAAGCG | 0.138 ± 0.031
108 | GGAATTCA | -0.126 ± 0.052
109 | ACAAAACT | 0.113 ± 0.034
110 | CACGGGGG | -0.0744 ± 0.039
111 | TGACCTCA | 0.0125 ± 0.0081
112 | CAATGCTG | -0.0887 ± 0.031
113 | GGAGTACA | -0.0974 ± 0.13
114 | CTTGGCAA | -0.0038 ± 0.016
115 | CAGATCTG | 0.268 ± 0.011
116 | AATTAAGT | -0.108 ± 0.029
117 | AATTCAGA | -0.232 ± 0.0091
118 | CGACAAAC | 0.14 ± 0.017
119 | ACTGGAGC | -0.177 ± 0.049
120 | CGTCGTAC | -0.085 ± 0.041
121 | GGCACGAA | -0.0223 ± 0.015
122 | CTACGTAA | 0.0155 ± 0.049
123 | ATGCCTGC | -0.314 ± 0.012
124 | CATACAGA | -0.0697 ± 0.024
125 | ATGGAGGC | -0.0262 ± 0.056

Row | Sequence | PBM E-score of 8-mer
126 | AAGTTCGA | -0.131 ± 0.11
127 | GCCGTCAA | 0.156 ± 0.01
128 | CGAGCTTA | -0.176 ± 0.028
129 | CCTGATCC | -0.0701 ± 0.017
130 | AAGCTTGT | -0.1801 ± 0.00038
131 | CTTCTGCC | -0.103 ± 0.076
132 | GTTTGGCA | 0.17 ± 0.02
133 | AGCGACAA | 0.255 ± 0.0028
134 | AAGGTTTG | -0.16 ± 0.015
135 | TATGGCAA | -0.0237 ± 0.04
136 | CCTATCTC | 0.051 ± 0.029
137 | GACGGCTC | 0.00758 ± 0.05
138 | CTGGAGCA | -0.099 ± 0.0075
139 | AAATACCC | -0.223 ± 0.014
140 | GCAAAGCA | -0.0314 ± 0.027
141 | GCTCGGCC | -0.121 ± 0.032
142 | CTCCCGTC | -0.132 ± 0.03
143 | ACAGTACT | -0.0664 ± 0.074
144 | AGGGCTCA | -0.236 ± 0.018
145 | AATCGGGA | -0.208 ± 0.076
146 | CTATCGAC | 0.147 ± 0.0049
147 | CTGTACGC | -0.178 ± 0.013
148 | GCCGAAAA | 0.0405 ± 0.0032
149 | AGTCAACT | -0.0153 ± 0.019
150 | CTAGTGCA | 0.173 ± 0.0046

Row | Sequence | PBM E-score of 8-mer
151 | CAATCGGC | 0.0473 ± 0.059
152 | ACAAATTC | 0.115 ± 0.1
153 | GCCAAACA | 0.102 ± 0.074
154 | TGTGCCAA | 0.351 ± 0.013
155 | CCTGACAG | 0.218 ± 0.036
156 | GCCGCACC | 0.321 ± 0.033
157 | CACAATAA | 0.103 ± 0.028
158 | CCAAGCTC | -0.0491 ± 0.14
159 | CAGTATTC | -0.15 ± 0.028
160 | CGCGGTAA | 0.0896 ± 0.008
161 | AGGGCCTC | -0.399 ± 0.0047
162 | AAGGCTGT | 0.0931 ± 0.0023
163 | GGTCGAAA | -0.0937 ± 0.033
164 | GACCCTAC | -0.0737 ± 0.034
165 | GGTACTCA | -0.0327 ± 0.053
166 | ATAGCGAT | -0.052 ± 0.021
167 | GCACCATA | 0.156 ± 0.064
168 | CTGCCGTA | -0.161 ± 0.059
169 | CTTTTGTC | 0.0595 ± 0.045
170 | TATCACAA | 0.281 ± 0.017
171 | CCCTTCAC | 0.229 ± 0.015
172 | GGTTCGTA | -0.182 ± 0.095
